The whole screen tested about 310,000 compounds, of which about 14,000 (4.5%) showed an effect of 50% or more. Effects have a minus sign here. This is one part of the list.
Target: human ether-à-go-go-related gene (hERG) potassium channel (human, UniProt Q12809)
Test: primary screen, population patch clamp on CHO cells stably expressing hERG
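Further: peak tail current of the secondary pulse compared with the same well before compound.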

Sequence of human ether-à-go-go-related gene (hERG) potassium channel (Q12809 whole entry, looked up): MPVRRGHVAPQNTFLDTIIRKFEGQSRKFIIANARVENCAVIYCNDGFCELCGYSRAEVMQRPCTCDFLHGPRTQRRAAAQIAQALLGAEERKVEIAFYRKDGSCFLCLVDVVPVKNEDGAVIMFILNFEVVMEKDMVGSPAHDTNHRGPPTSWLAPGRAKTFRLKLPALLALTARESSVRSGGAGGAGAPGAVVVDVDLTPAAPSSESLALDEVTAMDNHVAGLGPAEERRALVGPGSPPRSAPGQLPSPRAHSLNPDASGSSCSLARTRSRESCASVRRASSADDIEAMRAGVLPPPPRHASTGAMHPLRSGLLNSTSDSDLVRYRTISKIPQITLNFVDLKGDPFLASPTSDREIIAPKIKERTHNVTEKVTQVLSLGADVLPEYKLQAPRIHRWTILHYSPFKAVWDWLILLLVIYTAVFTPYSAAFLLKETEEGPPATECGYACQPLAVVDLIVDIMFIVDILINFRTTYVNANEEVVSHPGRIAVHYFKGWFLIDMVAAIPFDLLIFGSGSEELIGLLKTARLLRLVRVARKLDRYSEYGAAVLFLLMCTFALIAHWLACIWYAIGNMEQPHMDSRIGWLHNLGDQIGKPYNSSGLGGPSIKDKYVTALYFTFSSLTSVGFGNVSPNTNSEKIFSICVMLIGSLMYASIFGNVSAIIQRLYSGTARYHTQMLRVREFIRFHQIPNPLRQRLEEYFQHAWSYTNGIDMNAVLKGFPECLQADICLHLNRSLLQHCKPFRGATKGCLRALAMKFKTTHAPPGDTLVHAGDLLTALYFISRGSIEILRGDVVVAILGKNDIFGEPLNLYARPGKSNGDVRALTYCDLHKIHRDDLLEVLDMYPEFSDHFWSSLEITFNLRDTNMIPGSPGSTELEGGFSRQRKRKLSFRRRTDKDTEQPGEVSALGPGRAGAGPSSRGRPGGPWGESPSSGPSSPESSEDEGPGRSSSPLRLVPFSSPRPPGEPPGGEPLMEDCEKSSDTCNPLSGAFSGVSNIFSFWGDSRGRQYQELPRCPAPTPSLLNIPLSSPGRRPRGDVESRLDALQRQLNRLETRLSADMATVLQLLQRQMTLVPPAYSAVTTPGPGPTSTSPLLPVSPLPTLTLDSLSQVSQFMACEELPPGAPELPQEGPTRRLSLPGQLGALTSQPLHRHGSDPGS

Row | SMILES | hERG current change (%, negative = inhibition) at 10uM
1 | CCOC(=O)c1ccc(NC(=O)N2CCN(Cc3ccccc3)CC2)cc1 | -11.1%
2 | CC(=O)CNc1ccc(S(=O)(=O)N/N=C/c2ccccc2)cc1 | 16.1%
3 | O=C1OCC2=C1C(c1ccccc1)CC(=O)N2c1ccc(F)cc1 (stereo not drawn) | -7.86%
4 | O=c1cc(-c2ccccc2[N+](=O)[O-])oc2ccccc12 | -3.39%
5 | C=CCOn1c(=O)c(-c2ccc(OC)cc2)[n+]([O-])c2ccccc21 | -5.17%
6 | O=C(OCc1nc2ccccc2[n+]([O-])c1C(=O)c1ccccc1)c1cccs1 | 8.02%
7 | CCOc1ccccc1NC(=O)c1nc(S(=O)(=O)Cc2cccc(C)c2)ncc1Cl | 1.74%
8 | Cc1nc(C(=O)NNC(=O)Nc2ccccc2)cs1 | 11.4%
9 | Fc1ccccc1Cc1noc(CN2CCC(OCc3cccnc3)CC2)n1 | -14.5%
10 | Cc1cc(C)c(C#N)c(N2CCN(S(=O)(=O)Cc3ccccc3)CC2)n1 | 16.7%
11 | O=C(CC(NS(=O)(=O)c1ccc(Cl)cc1)c1ccco1)NCc1ccco1 (stereo not drawn) | -10.6%
12 | O=C(CSc1cccc2cccnc12)Nc1ccc(S(=O)(=O)N2CCOCC2)cc1 | -8.8%
13 | CN1CCN(C(=O)c2ccc(CS(=O)(=O)c3c(Cl)cccc3Cl)o2)CC1 | -5.15%
14 | COC(=O)c1cc(OC)c(OC)c(OC)c1[N+](=O)[O-] | -23.2%
15 | COc1ccccc1NS(=O)(=O)c1cccs1 | -11.2%
16 | Cc1ccccc1-c1cc(C(=O)Nc2sc(C(=O)OC(C)C)c(C)c2C#N)c2ccccc2n1 | 16.7%
17 | COc1ccc(CCNC(=O)C2CCN(S(=O)(=O)c3ccc(-n4cnnn4)cc3)CC2)cc1OC | -13%
18 | COc1ccc(/C=N/N=C2/NC(=O)CC(C(=O)O)S2)cc1 (stereo not drawn) | 11.7%
19 | CC1CCN(c2c([N+](=O)[O-])c(=O)oc3ccccc23)CC1 | -12.5%
20 | CN(Cc1ccncn1)C(=O)C1CCC(=O)N(Cc2cccc(C(F)(F)F)c2)C1 (stereo not drawn) | -5.2%
21 | O=C(C1CCN(S(=O)(=O)c2cccc3nsnc23)CC1)N1CC=C(c2ccccc2)CC1 | -25.7%
22 | O=C(Cc1c(Cl)cccc1Cl)NC1=NCCS1 | 11.2%
23 | CCc1ccc(Cn2nnc(C(=O)Nc3ccc(OC)cc3OC)c2N)cc1 | 12.8%

Row | SMILES | hERG current change (%, negative = inhibition) at 10uM
24 | Cc1ccc(OC(C)c2nnc(N)s2)cc1Cl (stereo not drawn) | -2.12%
25 | CCOC(=O)c1sc(-c2ccc(C)cc2)c(C#N)c1C | 8.61%
26 | CCc1nc(NC(C)C)c2oc3ccccc3c2n1.Cl | -6.89%
27 | CCOC(=O)C1CCCN(C(=O)CSc2nc(C)cc(C)n2)C1 (stereo not drawn) | 23.2%
28 | O=C(CCN1CCN(C/C=C/c2ccccc2)CC1)Nc1cccc(F)c1 | -77.9%
29 | Cc1ccc(CNC(=O)C(CC(C)C)OC(=O)c2ccco2)cc1 (stereo not drawn) | -6.6%
30 | O=S(=O)(Nc1ccc2c(c1)OCCO2)c1cccc2cccnc12 | -26.1%
31 | O=C(CSc1nc(=O)n(CCCN2CCOCC2)c2c1CCCC2)Nc1ccc(Cl)cc1 | -77.7%
32 | CCCC(C)C(=O)NCc1ccccc1OC (stereo not drawn) | 20.7%
33 | O=C(CCCSc1nnc(Nc2ccccc2F)s1)N1CCOCC1 | -2.97%
34 | COc1cc(/C(C#N)=C/c2ccccc2)c([N+](=O)[O-])cc1OC | -1.12%
35 | C(=N\N=C\c1cccnc1)/c1cccnc1 | -3.48%
36 | CN(C)C(CNC(=S)Nc1ccc(F)cc1)c1cccnc1 (stereo not drawn) | 4.11%
37 | O=C1C=C(c2cccc(OCc3ccccc3)c2)C[C@@H](c2ccc3c(c2)OCO3)C1 | 2.18%
38 | Cc1c(N)cccc1-n1cnnn1 | 13.9%
39 | COc1ccc(C(CC(=O)N2CCN(c3ccccc3)CC2)c2c(O)cc(OC)cc2OC)cc1 (stereo not drawn) | 9.99%
40 | COc1ccccc1NC(=O)CSc1nnc2ccc(-c3cccnc3)nn12 | -41.6%
41 | Cc1nc(N)c(C#N)c(-c2ccccc2Cl)c1C | -0.265%
42 | CCCCOc1ccccc1C(=O)NNC(=S)NC(=O)c1ccccc1[N+](=O)[O-] | 3.48%
43 | CN(CC(=O)NCc1cccnc1)S(=O)(=O)c1ccc2c(c1)c(=O)n(C)c(=O)n2C | 31.5%
44 | O=C(Nc1cccc2cccnc12)c1ccc(Cl)cc1 | 6.29%
45 | CCC/C(O)=C1\C(=O)CC(c2ccccc2)CC1=NCCc1c(C)[nH]c2ccccc12 (stereo not drawn) | -39.3%
46 | CCCCC(NC(C)=O)c1nc2ccccc2[nH]1 (stereo not drawn) | 23.1%

Row | SMILES | hERG current change (%, negative = inhibition) at 10uM
47 | N#Cc1ccc(COC(=O)c2cccnc2Cl)cc1 | -46.1%
48 | Cc1cc(C(=O)Nn2cnnc2)cs1 | 10.2%
49 | COC(=NC(C)C)NC(C)C | 22.2%
50 | Cc1cccc(C(=O)N2CCN(C(=O)c3cccc(C)c3)C(C)C2)c1 (stereo not drawn) | 6.45%
51 | Cn1c(Cl)c(/C=N/OC(=O)C2CC2)c2ccccc21 | 11.8%
52 | COC(=O)CN(c1c(C)cccc1C)S(C)(=O)=O | 9.13%
53 | COC(=O)c1nccc2c1[nH]c1ccccc12 | 9.72%
54 | CC(C)(C#N)Nc1ccccc1 | 7.22%
55 | O=C(NCC1CCCC(CNC(=O)Nc2ccc(Cl)cn2)C1)Nc1ccc(Cl)cn1 (stereo not drawn) | 4.19%
56 | COc1ccc2c(c1)CCc1c(C(=O)Nc3cc(C)n(Cc4ccc(Cl)cc4)n3)noc1-2 | -30.5%
57 | O=C1CCCC2=C1Sc1ccc(Cl)cc1N2 | 11.6%
58 | O=C(COC(=O)COc1ccc(Cl)cc1Br)NC1CCCCCC1 | 5.9%
59 | CC1(C)C2CCC1(C)C1(C2)NC(=O)c2ccccc2O1 (stereo not drawn) | 4.25%
60 | Cc1cc(Cl)c(OCCCNCc2ccccc2)c(Br)c1.O=C(O)C(=O)O | -51.8%
61 | CCOC(=O)C1C(=O)CC(C)(O)C(C(=O)OCC)C1c1ccc(OC)cc1 (stereo not drawn) | -4.15%
62 | COc1cc(NC(=O)COC(=O)/C=C/c2ccc(Cl)cc2Cl)cc(OC)c1 | 5.23%
63 | O=C(COC(=O)/C=C/c1ccc(C(F)(F)F)cc1)NCC1CCCO1 (stereo not drawn) | 10.1%
64 | N#Cc1ccc(C(=O)Nc2nnc(-c3ccccn3)o2)cc1 | -4.32%
65 | CCOC(=O)c1oc2ccccc2c1CN1CCN(C)CC1.Cl | -61.5%
66 | Cc1ccc(-n2c(SCC(=O)Nc3ccc4cn[nH]c4c3)nnc2-c2ccco2)cc1 | -62.4%
67 | CCOC(=O)N1CCN(C(=O)c2oc3ccc(S(=O)(=O)N4CCCCCC4)cc3c2C)CC1 | -29.8%
68 | Cc1cc(=O)oc2cc(OCC(=O)OCC(=O)N3CCc4ccccc43)ccc12 | -11.1%
69 | O=C(COC(=O)c1cc2c(s1)CCCCC2)NC1CCS(=O)(=O)C1 (stereo not drawn) | -3.87%

Row | SMILES | hERG current change (%, negative = inhibition) at 10uM
70 | COc1cccc(-n2nnnc2SCC(=O)Nc2ccccc2OC)c1 | -4.77%
71 | COc1ccc(N=Cc2c(O)n(-c3cccc(C)n3)c(=O)c3ccccc23)cc1 | -32.8%
72 | CCOC(=O)C1(Cc2ccccc2C)CCCN(C(=O)c2ccnn2C)C1 (stereo not drawn) | -6.29%
73 | CCOc1ccccc1C(C(=O)NC1CCCCC1)N(C(=O)c1csnn1)C1CC1 (stereo not drawn) | -38%
74 | COc1ccc(/C=N/NC(=O)c2ccc(N(C)S(=O)(=O)c3ccccc3)cc2)cc1OC | -26.9%
75 | CCCC(=O)Nc1cc(OC)c(C(=O)OC)cc1Cl | 24.6%
76 | CC(C)(C)c1ccc(S(=O)(=O)C(C)(C)C)cc1 | 11.6%
77 | O=C(c1ccco1)N1CCCC(Nc2ccc3c(c2)OCCO3)C1 (stereo not drawn) | -9.22%
78 | Cc1c(-c2ccc(/C=N/NC(=O)C(=O)Nc3ccccc3F)o2)cccc1[N+](=O)[O-] | 21.1%
79 | CCc1n[nH]c(=S)n1/N=C/c1ccccn1 | 19.6%
80 | CCS(=O)(=O)n1nc(-c2ccccc2)nc1SCc1ccccc1 | 12.4%
81 | O=C(Nn1cnc2ccccc2c1=O)c1ccc(Br)cc1 | 14.7%
82 | CCCCC(=O)Nc1cccc(NC(=O)c2ccccc2Br)c1 | -4.35%
83 | Cc1ccccc1C(=O)N1N=C(c2cccc(NS(C)(=O)=O)c2)CC1c1cccs1 (stereo not drawn) | -6.36%
84 | Cc1ccc(NS(=O)(=O)c2cccc3cccnc23)c(Br)c1 | 16%
85 | COc1ccccc1NC(C)=[N+](C)CCNS(=O)(=O)c1ccc(Cl)cc1.[I-] | -58.7%
86 | O=C(OCC(O)CN1CCCCC1)C12CC3CC(CC(C3)C1)C2 (stereo not drawn) | -16.3%
87 | NC(=S)/N=C/c1c(O)[nH]c(=O)[nH]c1=O | 12.5%
88 | NS(=O)(=O)c1ccc(NC2=CC(c3ccc(F)cc3)N(c3ccc(S(N)(=O)=O)cc3)C2=O)cc1 (stereo not drawn) | 0.363%
89 | CC(=O)Nc1ccc(NC(=S)Nc2ccc(Br)cc2)cc1 | 1.54%
90 | COC(=O)C1=C(CSc2nc3ccccc3o2)NC(=O)NC1c1cc(C)ccc1C (stereo not drawn) | 1.51%
